Measurements published in article PMC12136788.
Some of the results follow.

T1: UNK ZnF1-3 (human, UniProt Q9C0B0 31-174)
T1 sequence: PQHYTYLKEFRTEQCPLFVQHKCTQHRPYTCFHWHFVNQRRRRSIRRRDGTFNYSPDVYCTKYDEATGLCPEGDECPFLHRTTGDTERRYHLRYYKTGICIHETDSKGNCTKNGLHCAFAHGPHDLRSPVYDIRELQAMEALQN

B1: 9435824_9435944_704_3pUTR_ENSG00000205339_ENST00000379719|human|control|control (ssRNA)
RNA: GGGAGUUCUACAGUCCGACGAUCAGAAGAUCUUGAAUAUCUGUUUCUGGAUGAGGACAGACUGAUCAGACUGGUCAGAAAGAAGCUGGAUAAAACGAUCCUUUAGAACUGGCAGAAAAUGCUGCAUUGCUGCUACCAAUGGACCAACAGAGGAUUGAGCAUCA
B2: 26112668_26113596_934_CDS_ENSMUSG00000045039_ENSMUST00000128119|mouse|control|control (ssRNA)
RNA: GGGAGUUCUACAGUCCGACGAUCACUGUGCCACCAACCAGCCCCCUGGUUCUCCCACAAGUGCAGGUCACAGGCUCGUCCCAAGAAUCCAGGUUCACAGCGGCAUGGUCCCAGGGUCGAGGCGCAGGUGCCAUGGCUGCCACACAACAGAGGAUUGAGCAUCA
B3: chr9:120860063:120860064:+_ENSMUSG00000006932_ENSMUST00000007130|mus_mus|motif|central (ssRNA)
RNA: GGGAGUUCUACAGUCCGACGAUCCUGCAUGCCCUCAUCUAGCGUCUCAGGGAACAUGGCAGCUCGGACCCUCUGAGCCCGGGUCAUUGCAUACUGCCCGUCAAUAUCAGCUACUUGCUCUUGCGUGAAGGACUGGGAAAAGCCCAACAGAGGAUUGAGCAUCA
B4: chr6:51416610:51416611:-_ENSMUSG00000004980_ENSMUST00000090002|perfect_dup|FALSE|FALSE (ssRNA)
RNA: GGGAGUUCUACAGUCCGACGAUCCCUAUCAGUAAUUAUCUCAAUGGUAUCAAUUUUUCCAUAUUCCUCAAAGUAAUCUCUAAGGUGAUGUUCCUCAGUAUCUUCUUUAAUUCCGCCAACAAACAGCUUCUUCACAGUUACAUGCAACAGAGGAUUGAGCAUCA
B5: chr8:108204030:108204031:+_ENSMUSG00000005698_ENSMUST00000005841|mus_hu|FALSE|FALSE (ssRNA)
RNA: GGGAGUUCUACAGUCCGACGAUCCUUCUUGGCGGGUGGUGGGGCUGGGGUCACAGGCUGAGGCUCUGGCUCAGGUUCAAUUUCUACGGCAGGCUCCUCCUCAUCCUCAUUGUCGUCCAGAUCUGGUUCAGCAUUUUCACUGUCCAACAGAGGAUUGAGCAUCA
B6: chr3:148802587:148802588:-_ENSG00000071794_ENST00000310053|hu_mus|hu_hu_hu_mus_False|18_48 (ssRNA)
RNA: GGGAGUUCUACAGUCCGACGAUCUCCAACAACUUGUCCUCUCAUAGUUCCAAAUAAAACCAAAUCUUGCUCUUCAUCACUCGUUAGAAAGUCAUCUGGAGGAAUAAUGUCUUGGAAUUCAAAACGUGGCAAGAAAGUUGAGUACAACAGAGGAUUGAGCAUCA
B7: chr2:155483634:155483635:-_ENSMUSG00000038324_ENSMUST00000041059|perfect_dup|FALSE|FALSE (ssRNA)
RNA: GGGAGUUCUACAGUCCGACGAUCGGUGACAGCCAGAAUCCGGCAGAAAUUAGCGAGCUGCUGCUGAUCGAAAUUGGAUACUAAGGAACUCAGAUUGGGGACUUCAUCUAGUCGGAUCAUUUCCUUUUUAACACCCAAAAUAUCCAACAGAGGAUUGAGCAUCA
B8: chr12:32871593:32871594:+_ENSG00000087470_ENST00000452533|hu_hu|FALSE|FALSE (ssRNA)
RNA: GGGAGUUCUACAGUCCGACGAUCCAAUACAUCCAUGGCAUCAGUACCCGCAUCCAUGAGAUCAAGUUUAGUGAUUACAGCUAGGGUUCUGCGACCAUCUGGAUCUACCUCUCUUGAAAUUUUAAGUGCCUCUGAUGUUGCCAUCAACAGAGGAUUGAGCAUCA
B9: chr4:88366126:88366127:-_ENSMUSG00000070923_ENSMUST00000094993|mus_hu|FALSE|FALSE (ssRNA)
RNA: GGGAGUUCUACAGUCCGACGAUCUGCUGAAAGAGGUGAUUCUCUAGAAGGUGACCCAGGGUUUUCUUCAGGUGGAAAAACUGUGAGUGUACAGGCUCGAAUGCCACCAAGUGACUCUGGAAGAUCAAAAACUUUAUGCCACUCCAACAGAGGAUUGAGCAUCA
B10: chr4:95690885:95690886:+_ENSMUSG00000028572_ENSMUST00000156910|mus_mus|mus_mus_mus_hu_False|98_98 (ssRNA)
RNA: GGGAGUUCUACAGUCCGACGAUCUUUAGAAAAUGUUAAUGUUAAAUCUAAAAUAUUUUCAAAGGCUUAUUUUAUUUUACCAGAAGUCACAGGCAAGCAGACACUACAAGAAUAUAUGAAAAUGAAACUCAACAAUAUAACUGUCAACAGAGGAUUGAGCAUCA
B11: chr10:84137372:84137373:+_ENSMUSG00000034453_ENSMUST00000077175|mus_mus|FALSE|FALSE (ssRNA)
RNA: GGGAGUUCUACAGUCCGACGAUCGUAAGAGAGCUCUUCUCCACAUAAUAAAUUCACAUCUUCUACUCCCAAGUUCCCAGCUAACUUAAUAAUGGGUCCAUCUUCCAUGUCAGUUGUUAUAUGUGUCAUGAGGGCCAAGUUCUUCAACAGAGGAUUGAGCAUCA
B12: chr11:19991362:19991363:-_ENSMUSG00000020152_ENSMUST00000000137|mus_hu|FALSE|FALSE (ssRNA)
RNA: GGGAGUUCUACAGUCCGACGAUCCAAAGUCAGAACUGCCUGGAUGGCUACAUAUACACCGGAAAACUGGUAAGUUUCAAACAUUACCUCUACAAUCUUCUCUCUGUUUUUGGUUGGGUUCAUAGGAGGUUCUGUGAGUAAGAUCAACAGAGGAUUGAGCAUCA
B13: chr4:62048941:62048942:+_ENSMUSG00000066150_ENSMUST00000084526|mus_hu|FALSE|FALSE (ssRNA)
RNA: GGGAGUUCUACAGUCCGACGAUCUUGUGACUUACGCAGCAGGCUCUCUCGGGCUAUCUUGAGUCCUUCAUAGAACAUUGCUAGUAAAAACACUGCCACAAAAGCUCCAGCCAUUUCUCCAGCUGUAUUGAUCACCAAACCGGACAACAGAGGAUUGAGCAUCA
B14: chr6:38652254:38652255:-_ENSG00000124767_ENST00000373365|hu_hu|hu_hu_hu_mus_False|8_18 (ssRNA)
RNA: GGGAGUUCUACAGUCCGACGAUCCGAGAACUUCAUAGCAGGGAAGUCAAGCUUCUGCAGGAGGGUCAGUCCAAGAACCCUCGUAUAAAAAUCCAGGGACUUCUUAGGAUCCUUAAUUCGUAGCAUGGUCUGCUGCAGUAGAAACAACAGAGGAUUGAGCAUCA
B15: chr4:116827845:116827846:-_ENSMUSG00000047675_ENSMUST00000140226|mus_mus|motif|central (ssRNA)
RNA: GGGAGUUCUACAGUCCGACGAUCACAAGUCCUUGCAUUGGCAAGUGGUGUACAGGUGGCCAAGACGGCCAUAACCACGCCGGAGGAUACGUUUUCAUCACCCUAGUUACCUCCAGAAAAAGCCAGACCCCCCCUAACACAGGACAACAGAGGAUUGAGCAUCA
B16: chr22:32879901:32879902:+_ENSG00000100225_ENST00000397426|hu_mus|hu_hu_hu_mus_False|1_18 (ssRNA)
RNA: GGGAGUUCUACAGUCCGACGAUCCUCUUCCAUACUCAUGGCAUCCUGAAUUGACUCAGCUUCAACAUUUUGACUAGGCCCUUCCAUACUGUCAUCAGUCCAGGCAUCAAAUGGGGUUGCCUGUCCUUGGGAUGAAUCACUUGGCAACAGAGGAUUGAGCAUCA
B17: 39555151_39564275_314_CDS_ENSMUSG00000025862_ENSMUST00000069619|mouse|control|control (ssRNA)
RNA: GGGAGUUCUACAGUCCGACGAUCCUUUUUGCCUUUUUUACAAGUUUUGCCUUUGCCUUGCUUCUGAUUUUUUCCUUCAAUGUCUUCAAAAUCUGUGUCAGAAGAAAAGUGUGUCUCUGACUCCUGCAGUAGAUUAAAAUCAGUCAACAGAGGAUUGAGCAUCA
B18: 25140530_25140650_2237_CDS_ENSMUSG00000026965_ENSMUST00000028341|mouse|control|control (ssRNA)
RNA: GGGAGUUCUACAGUCCGACGAUCUGAGUCACUCUCAUCAUCACUGUCAAUCAGCACCAUGUUGUCCCUAUCCUGAGGCCGCUCUUCCUCAAUGACAGAGAAAGUGCCUGGAGGUUCCUCCCGCAGCACACCCUGUUGCAGCCACAACAGAGGAUUGAGCAUCA
B19: chr19:15981513:15981514:-_ENSMUSG00000024640_ENSMUST00000025542|mus_hu|FALSE|FALSE (ssRNA)
RNA: GGGAGUUCUACAGUCCGACGAUCUAAAGCAUCAUCUCCUUUGGCAUUGCCAAUGCGGAAUGGAAUAUUCAUCUUGCUUCUAUUUUGGGGCUCCACUGGACAAACGUAGAAUCCUUGAGAAUUAUCAAUAAUCUCAUAAAUUGUCAACAGAGGAUUGAGCAUCA
B20: 37602415_37605724_1144_CDS_ENSG00000102710_ENST00000475892|human|control|control (ssRNA)
RNA: GGGAGUUCUACAGUCCGACGAUCUUCAAAUACAUAAUCAUCUUUUACAUCAUGGGCUGGCCAGACUGUUGGCUGUGAGUCAUCAGAUUUGAUAGACUUUUCCACUUUAGCAUAUUUCUCCACAUCUACUUCAGAAGGUAUGGCCAACAGAGGAUUGAGCAUCA
B21: chr2:42509997:42509998:+_ENSG00000143924_ENST00000318522|hu_mus|hu_hu_hu_mus_True|58_78 (ssRNA)
RNA: GGGAGUUCUACAGUCCGACGAUCUCGCUGAGUCCUCUCCUCAUAAUUAAACAGGACUACUACUGAUGCGAUAAAAUAAACUAUUUUCCCUGUGGGAAGCAGGUAUACAUUCGCUCUACAGUCCUUUCCUCGAUAACCGUAUACCAACAGAGGAUUGAGCAUCA
B22: chr8:95500983:95500984:-_ENSG00000164944_ENST00000437199|hu_hu|hu_hu_hu_mus_True|1_8 (ssRNA)
RNA: GGGAGUUCUACAGUCCGACGAUCAGAACACAUCUAUCGAGUAAAGGACCGUACAUGACGGCCUCUACCACUGCCUCCACUAACAAACUUUCCUCUCGAGCCUCCACUGCCGCUAUUUGUACUAGCCCCAGGAAGGUCCAAGUCCAACAGAGGAUUGAGCAUCA

What follows are binders tested against T1, UNK ZnF1-3 (assay: nsRBNS (natural sequence RNA bind-n-seq); RBNS binding buffer (assumed for nsRBNS): 25 mM Tris pH 7.5, 150 mM KCl, 3 mM MgCl2, 0.01% Triton X-100, 500 ug/ml BSA, 20 U/ml SUPERase-In, 4 C; UNK is unkempt and MSI1 is Musashi-1; names of the RNAs are library labels; protein concentration not given here; high values mean tight binding).

Row | Binder | binding signal [enrichment R]
1 | B1 | 1.9
2 | B2 | 1.45
3 | B3 | 1.26
4 | B4 | 1.05
5 | B5 | 0.649
6 | B6 | 1.23
7 | B7 | 0.94
8 | B8 | 1.3
9 | B9 | 1.17
10 | B10 | 1.8
11 | B11 | 1.17
12 | B12 | 1.59
13 | B13 | 0.629
14 | B14 | 0.631
15 | B15 | 0.968
16 | B16 | 0.817
17 | B17 | 0.712
18 | B18 | 0.832
19 | B19 | 0.811
20 | B20 | 0.772
21 | B21 | 1.5
22 | B22 | 0.727
